Consider 91 compounds from PubChem BioAssay AID360 (National Center for Advancing Translational Sciences (NCATS), 2006).

The campaign covered roughly 48,000 compounds. About 550 (1.1%) were called active. Roughly 4% stayed inconclusive and do not appear here. Cut-off read from the data, not from the text of the source: active = potency below about 15 µM; inconclusive = mostly about 16 µM to 33 µM; inactive = weaker than that. Some of the results follow.
Potency is the fitted concentration of half-maximal effect.

The target in this assay is Lysosomal acid glucosylceramidase (Homo sapiens) (UniProt P04062). In words: Glucocerebrosidase.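 Note: the screen sought inhibitors.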 The settings on record: purified enzyme, resorufin glucoside fluorescence (screen aimed at inhibitors), 20 min; series mostly up to 77 µM. The method, boiled down: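 Normal human glucocerebrosidase (0.2 nM final) was assayed with resorufin β-D-glucopyranoside (30 uM final) in 50mM citric acid/KH2PO4, 10mM sodium taurocholate, 0.01% tween-20, pH 5.9. Compounds were titrated; fluorescence (Ex 548, Em 600) read after 20 min at RT.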
UniProt P04062, sequence (P04062 whole entry, looked up): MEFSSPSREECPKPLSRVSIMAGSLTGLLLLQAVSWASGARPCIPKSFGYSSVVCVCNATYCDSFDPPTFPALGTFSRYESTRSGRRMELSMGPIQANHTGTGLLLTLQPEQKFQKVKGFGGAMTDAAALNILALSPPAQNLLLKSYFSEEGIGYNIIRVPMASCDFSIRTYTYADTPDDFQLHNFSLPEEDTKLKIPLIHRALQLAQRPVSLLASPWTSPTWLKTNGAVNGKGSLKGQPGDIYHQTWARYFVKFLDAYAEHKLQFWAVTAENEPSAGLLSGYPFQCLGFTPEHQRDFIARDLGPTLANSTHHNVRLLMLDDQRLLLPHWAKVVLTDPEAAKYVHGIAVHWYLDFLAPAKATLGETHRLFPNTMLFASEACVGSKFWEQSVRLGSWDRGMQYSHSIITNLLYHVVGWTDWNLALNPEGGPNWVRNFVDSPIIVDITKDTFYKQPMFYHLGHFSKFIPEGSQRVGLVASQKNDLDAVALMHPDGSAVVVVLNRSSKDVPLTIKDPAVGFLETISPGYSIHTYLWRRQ
In the case of `Cc1ccc(OCC(=O)Nc2nnn(C)n2)c(C)c1`, the Potency was inactive: > 76.9 µM.

Consider `CCOCCCn1c(=S)[nH]c2cc(C(=O)N3CCC(C(N)=O)CC3)ccc2c1=O`, for which the Potency is inactive: > 76.9 µM. The same measure for `CCC(=O)NC(Nc1cccc(C)n1)(C(F)(F)F)C(F)(F)F`: inactive: > 76.9 µM; for `CCn1c(-c2ccc(F)cc2)n[nH]c1=S`: inactive: > 76.9 µM. In the case of `Cc1cccc(-n2nnnc2SCC(=O)c2cc(C)n(Cc3ccco3)c2C)c1` it was inactive: > 76.9 µM; in that of `O=C1CC(N2CCC(c3nc4ccccc4s3)CC2)C(=O)N1` (stereo unspecified), inactive: > 76.9 µM. In the case of `COc1ccc(N2C(C)=CS/C2=C(/C#N)c2nnc(N3CCOCC3)n2-c2ccccc2)cc1` it was inactive: > 76.9 µM; in that of `O=C(COc1ccc(N2CC(C(=O)O)CC2=O)cc1)Nc1cccc(C(F)(F)F)c1` (stereo unspecified), inactive: > 76.9 µM; in that of `CCCCn1nc(CC(=O)O)c2ccccc2c1=O`, inactive: > 76.9 µM. Regarding `Cc1ccc(S(=O)(=O)N2CCC(C(=O)N[C@@H](C)C(=O)NCCc3ccccc3)CC2)cc1`, the Potency is inactive: > 76.9 µM.

Consider `CC1(C)CC(=O)C2=C(C1)NC(Nc1nc3ccccc3o1)=NC21CCCC1`, for which the Potency was inactive: > 76.9 µM.

Regarding `CCn1cc(C(=O)N=c2sc3ccccc3n2C)c(=O)c2ccc(C)nc21`, the Potency was inactive: > 76.9 µM.

In the case of `CCOC(=O)C1CCCN(Cc2nc(N)nc(Nc3ccc(Cl)cc3)n2)C1` (stereo unspecified), the Potency was inactive: > 76.9 µM.

As to `O=C(CC1SC2=NCCN2C1=O)Nc1ccc(Cl)cc1` (stereo unspecified), the Potency was inactive: > 76.9 µM.

`COc1ccc(CNC(=O)c2ccc(=O)oc2)cc1OC`: the Potency was inactive: > 76.9 µM. With `CCOC(=O)c1csc(NC(=O)c2ccc(S(=O)(=O)N(CC)CC)cc2)n1`, the Potency is inactive: > 76.9 µM.

As to `O=S(=O)(c1ccc(-c2csc(-c3cccnc3)n2)cc1)N1CCCC1`, the Potency is inactive: > 76.9 µM. In the case of `CCCCn1c(SCC(N)=O)nnc1-c1cc(OC)c(OC)c(OC)c1` it was inactive: > 76.9 µM.

In the case of `CC1CCCCC1NC(=O)COc1ccc(-n2cnnn2)cc1` (stereo unspecified), the Potency is inactive: > 76.9 µM.

As to `CC1CCCN(c2nc3ccsc3c(=O)s2)C1` (stereo unspecified), the Potency was inactive: > 76.9 µM.

Turning to `Cc1ccc(CSc2nnc(-c3ccccn3)n2C)cc1`, the Potency was inactive: > 76.9 µM. On to `CCC(Sc1nc2n[nH]c(C)c2c(=N)n1-c1cccc(Cl)c1C)C(=O)N(CC)CC` (stereo unspecified), for which the Potency is inactive: > 76.9 µM. As to `Cc1c(NC(=O)c2cccc(NC(=O)c3ccco3)c2)cccc1C(=O)O`, the Potency was inactive: > 76.9 µM. On to `COc1ccc(C(NC(=O)C(C)(C)C)NC(=O)C(C)(C)C)cc1`, for which the Potency was inactive: > 76.9 µM. In the case of `COc1ccc(NC(=O)C2CCCCN2CC(=O)OCc2ccccc2)cc1OC` (stereo unspecified) it was inactive: > 76.9 µM. In the case of `N#Cc1cc2sc3nc4ccccc4n3c2cc1C#N` it was inactive: > 76.9 µM. The same measure for `COC(=O)C(C)Sc1nc2c([nH]c3ccccc32)c(=O)n1C` (stereo unspecified): inactive: > 76.9 µM; for `COc1ccc2[nH]c(=O)c(CN(CCc3ccccc3)Cc3nnnn3CC3CCCO3)cc2c1` (stereo unspecified): inactive: > 76.9 µM. Consider `COc1ccc(S(=O)(=O)N(C)CC(=O)Nc2ccccc2C(F)(F)F)cc1OC`, for which the Potency is inactive: > 76.9 µM.

Take `CCOC(=O)c1cnc(SC2CC(=O)N(c3ccc(OC)c(OC)c3)C2=O)nc1N` (stereo unspecified): the Potency is inactive: > 76.9 µM. In the case of `N#C/C(=C\c1ccc[nH]1)Sc1nc2ccccc2s1` it was inactive: > 76.9 µM; in that of `CCCCn1nnc(NC(=O)c2ccco2)n1`, inactive: > 76.9 µM; in that of `CCCn1c(SCc2ccccc2)nc2c1c(=O)[nH]c(=O)n2C`, inactive: > 76.9 µM. In the case of `O=C(CS(=O)CC(=O)Nc1cccc2c1CCCC2)Nc1ccc(F)cc1` (stereo unspecified) it was inactive: > 76.9 µM; in that of `CC(Sc1nnc(COc2ccc3ccccc3c2)n1C)C(=O)O` (stereo unspecified), inactive: > 76.9 µM; in that of `CCC(=O)N(Cc1cc2cccc(C)c2[nH]c1=O)c1ccccc1OC`, inactive: > 76.9 µM.

Turning to `COc1ccc(NC(=O)CNS(=O)(=O)c2ccccc2)cc1Cl`, the Potency was inactive: > 76.9 µM. `C=CCn1c(SCC(=O)NC2CCCCC2)nnc1-c1sc(N)nc1C`: the Potency was inactive: > 76.9 µM. `COc1cccc(-c2cc(C(F)(F)F)nc(N3CCN(c4ccccc4)CC3)n2)c1`: the Potency is inactive: > 76.9 µM.

Take `Cc1cc(N2CCC(C)CC2)n2ncc(-c3ccccc3)c2n1`: the Potency entry is “inactive”. In the case of `O=C1CC(=O)N(c2ccccc2)c2ccccc21` it was inactive: > 76.9 µM.

Turning to `Cc1nc(SCC#N)c2c3c(sc2n1)CCC3`, the Potency was inactive: > 76.9 µM. The same measure for `O=C(CSc1nc2c(c(=O)n1-c1ccc(Cl)cc1)SCC2)Nc1nccs1`: inactive: > 76.9 µM; for `O=C(O)CCc1nc2cccnc2n1Cc1ccccc1`: inactive: > 76.9 µM. In the case of `COc1nc(N(C)C)nc(N(OC)S(=O)(=O)c2ccccc2Cl)n1` it was inactive: > 76.9 µM. The same measure for `COc1ccc(CC(=O)Nc2c3c(nn2-c2ccccc2C)CS(=O)C3)cc1` (stereo unspecified): inactive: > 76.9 µM; for `COc1ccc(C2=NOC(C(=O)NCCN3CCOCC3)C2)cc1` (stereo unspecified): inactive: > 76.9 µM; for `CCc1cc(C(=O)c2ccccc2OC)c(N)s1`: inactive: > 76.9 µM. On to `COc1ccc(-c2cn3ccccc3n2)cc1OC`, for which the Potency entry is “inactive”.

On to `CC(C)(C)c1cc(=O)n2c(C#N)c(C#N)nc2[nH]1`, for which the Potency is inactive: > 76.9 µM. The same measure for `CC(C(=O)Nc1nc2ccccc2[nH]1)N1C(=O)C2CC=CCC2C1=O` (stereo unspecified): inactive: > 76.9 µM.

On to `Cc1nnc(SCCn2c(N3CCN(C)CC3)nc3c2c(=O)[nH]c(=O)n3C)s1`, for which the Potency is inactive: > 76.9 µM. In the case of `O=C(C1CCCCC1)N1CCC(c2nc3c(nnn3Cc3c(F)cccc3Cl)c(=O)[nH]2)CC1` it was inactive: > 76.9 µM. In the case of `CCOC(=O)N1CCN(C(=O)CCCn2c(=S)[nH]c3ccccc3c2=O)CC1` it was inactive: > 76.9 µM; in that of `CCC(=O)N1CCc2cc(Br)cc(S(=O)(=O)NCCN3CCCCC3C)c21` (stereo unspecified), inactive: > 76.9 µM; in that of `O=C(O)c1ccc(CSc2nnc(-c3ccncc3)n2CC2CCCO2)cc1` (stereo unspecified), inactive: > 76.9 µM. In the case of `COc1cccc(-c2csc(NC(C)=O)n2)c1` it was inactive: > 76.9 µM. Take `O=C(NCC1CCCO1)C1CC(c2ccc(Cl)c(Cl)c2)=NO1` (stereo unspecified): the Potency is inactive: > 76.9 µM. In the case of `Cc1cc(NC(=O)CSc2nc3sc4c(c3c(=O)n2C)CCCC4)no1` it was inactive: > 76.9 µM; in that of `Cn1c(=O)c2c(n(C)c1=O)=NC1(CCCCC1)ON=2`, inactive: > 76.9 µM; in that of `Cn1c(C(=O)O)c(CC(=O)NCC2COc3ccccc3O2)c2ccccc21` (stereo unspecified), inactive: > 76.9 µM. The same measure for `CCN(C(=O)c1ccccc1Cl)c1ccccc1`: inactive: > 76.9 µM; for `Cc1cc(C(=O)Nc2c(C)n(C)n(-c3ccccc3)c2=O)cs1`: inactive: > 76.9 µM; for `CC(=O)Nc1cccc2c1[n+]([O-])c(C)c(C)[n+]2[O-]`: inactive: > 76.9 µM. In the case of `Cc1cc(C)cc(N2C(=O)C3CC=CCC3C2=O)c1` (stereo unspecified) it was inactive: > 76.9 µM.

Regarding `COc1ccc(S(=O)(=O)N2Cc3ccccc3CC2C(=O)N2CCOCC2)cc1` (stereo unspecified), the Potency was inactive: > 76.9 µM. In the case of `COc1ncnc2sc(-c3ccccc3)cc12` it was inactive: > 76.9 µM; in that of `COC(=O)c1ccc(Oc2nc(N3CCCCC3)nc(N3CCOCC3)n2)cc1`, “inactive”; in that of `O=C(Nc1nnc(-c2ccccc2Cl)o1)c1cccnc1`, inactive: > 76.9 µM.

Regarding `CCC1(C)Cc2c(C#N)c(N)n(N)c(=S)c2CO1` (stereo unspecified), the Potency was inactive: > 76.9 µM. In the case of `CC#CCN(CC#CC)S(=O)(=O)c1ccc(-n2cnnn2)c(OC)c1` it was inactive: > 76.9 µM. The same measure for `O=C(NCCC1=CCCCC1)c1cnsn1`: inactive: > 76.9 µM; for `Cc1ccc(CNC(=O)C2CNc3cc(C)ccc3O2)cc1` (stereo unspecified): inactive: > 76.9 µM. As to `Cc1ccc(NC(=O)C2CCCN(S(=O)(=O)c3c(C)noc3C)C2)c(C)c1` (stereo unspecified), the Potency was inactive: > 76.9 µM. In the case of `Cn1c(SCC(=O)NCc2cccs2)nnc1-c1ccco1` it was inactive: > 76.9 µM; in that of `COc1ccc2c(c1)N(C)C(=O)CC(c1ccccc1)=N2`, inactive: > 76.9 µM. In the case of `CCOc1ccc(S(=O)(=O)N(CC(=O)N2CCc3ccccc32)Cc2ccco2)cc1`, the Potency is inactive: > 76.9 µM.

Turning to `O=C(N1CCOCC1)N1CCC(NC(=O)C23CC4CC(CC(C4)C2)C3)CC1`, the Potency is inactive: > 76.9 µM. In the case of `O=C1CCCC2=C1C1(CCCC1)N=C(Nc1nc3ccccc3s1)N2` it was inactive: > 76.9 µM; in that of `CCCCn1c(SCC(=O)N2CCCC2)nc2c1c(=O)n(C)c(=O)n2C`, inactive: > 76.9 µM; in that of `Cc1sc(NC(=O)CSc2nnc(-c3ccccc3)o2)c(C#N)c1C`, inactive: > 76.9 µM. In the case of `Cc1cc(C)c(C(N)=O)c(NCCc2ccccc2)n1` it was inactive: > 76.9 µM; in that of `COc1cc(-c2nnc(-c3ccco3)o2)ccc1OCc1ccccc1`, inactive: > 76.9 µM; in that of `COC(=O)C1=C(C)NC(=O)C1(Nc1ccc(Cl)cn1)C(F)(F)F` (stereo unspecified), inactive: > 76.9 µM.

Turning to `CC1CC(C)CN(CC(=O)Nc2ccc(S(N)(=O)=O)cc2)C1` (stereo unspecified), the Potency was inactive: > 76.9 µM. On to `Cn1nc(-c2ccc(C(=O)N3CCN(c4ccccc4)CC3)cc2)c2ccccc2c1=O`, for which the Potency is inactive: > 76.9 µM. With `O=C(c1cc2c(s1)CCC2)N1C(=O)c2ccccc2S1(=O)=O`, the Potency is inactive: > 76.9 µM. In the case of `Cc1ccc(-c2ccc(=O)n(CC(=O)N3CCN(c4cccc(C)c4)C(C)C3)n2)cc1` (stereo unspecified) it was inactive: > 76.9 µM; in that of `Cc1cc(C)c2[nH]c(=O)c(C(c3nnnn3Cc3ccc4c(c3)OCO4)N3CCCC3)cc2c1` (stereo unspecified), inactive: > 76.9 µM; in that of `CCCCOC(=O)Cn1c(=N)n(CCN2CCOCC2)c2ccccc21`, inactive: > 76.9 µM. For the compound `O=C(c1ccc(F)cc1)c1cn[nH]c1-c1ccccc1O`, the Potency was inactive: > 76.9 µM.
